# The whole screen tested about 310,000 compounds, of which about 14,000 (4.5%) showed an effect of 50% or more. Effects have a minus sign here. The list shows a part of the results.
# Molecular target: human ether-à-go-go-related gene (hERG) potassium channel (human, UniProt Q12809)
# Assay: primary screen, population patch clamp on CHO cells stably expressing hERG
# 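Also: peak tail current of the secondary pulse compared with the same well before compound.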
# Sequence of human ether-à-go-go-related gene (hERG) potassium channel (Q12809 whole entry, looked up): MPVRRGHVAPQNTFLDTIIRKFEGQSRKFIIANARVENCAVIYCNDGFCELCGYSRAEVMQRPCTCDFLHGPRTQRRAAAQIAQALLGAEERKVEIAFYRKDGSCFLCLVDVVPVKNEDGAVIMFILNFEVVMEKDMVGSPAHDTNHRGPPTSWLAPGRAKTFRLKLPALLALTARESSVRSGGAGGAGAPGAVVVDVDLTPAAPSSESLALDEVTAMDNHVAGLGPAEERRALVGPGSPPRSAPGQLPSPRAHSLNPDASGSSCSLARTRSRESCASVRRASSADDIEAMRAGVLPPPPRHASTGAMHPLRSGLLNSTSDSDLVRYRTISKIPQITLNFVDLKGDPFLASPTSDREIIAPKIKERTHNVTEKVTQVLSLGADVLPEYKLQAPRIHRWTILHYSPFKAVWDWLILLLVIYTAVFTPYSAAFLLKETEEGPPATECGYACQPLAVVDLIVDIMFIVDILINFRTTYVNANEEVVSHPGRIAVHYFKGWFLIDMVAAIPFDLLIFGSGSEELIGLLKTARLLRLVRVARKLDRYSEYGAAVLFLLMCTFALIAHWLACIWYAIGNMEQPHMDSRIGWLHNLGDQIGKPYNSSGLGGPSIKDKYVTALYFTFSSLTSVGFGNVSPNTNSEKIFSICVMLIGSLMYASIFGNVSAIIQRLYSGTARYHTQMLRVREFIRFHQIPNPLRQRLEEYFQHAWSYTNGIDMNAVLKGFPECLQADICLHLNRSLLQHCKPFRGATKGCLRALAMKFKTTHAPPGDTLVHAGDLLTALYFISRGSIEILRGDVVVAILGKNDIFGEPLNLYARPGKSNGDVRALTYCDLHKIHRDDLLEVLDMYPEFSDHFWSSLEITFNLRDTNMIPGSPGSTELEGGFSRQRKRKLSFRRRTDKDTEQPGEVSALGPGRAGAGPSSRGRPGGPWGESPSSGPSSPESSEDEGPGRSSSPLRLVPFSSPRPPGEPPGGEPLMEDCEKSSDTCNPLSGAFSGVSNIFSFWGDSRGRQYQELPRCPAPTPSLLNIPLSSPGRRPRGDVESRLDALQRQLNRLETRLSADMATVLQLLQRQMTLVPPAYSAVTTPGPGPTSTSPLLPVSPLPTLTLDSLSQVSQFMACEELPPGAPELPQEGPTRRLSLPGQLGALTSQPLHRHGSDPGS
row,SMILES,"hERG current change (%, negative = inhibition) at 10uM"
1,O=C1CCC(C(=O)N2CCSCC2)CN1Cc1cccc(C(F)(F)F)c1 (stereo not shown),-0.468%
2,CCOC(=O)C1=NOC(CNC(=O)c2ccccc2Cl)C1 (stereo not shown),9.33%
3,Cc1ccc(S(=O)(=O)/N=C(/Sc2ccccc2C(=O)O)c2ccccc2)cc1,17.6%
4,COCCNC(=O)[C@@H]1CSC2c3ccc(OC)c(OC)c3C(=O)N21 (stereo partly shown),21.3%
5,O=C(Nc1ccccc1-c1nnn(CC(=O)N2CCOCC2)n1)c1ccccc1F,-10.2%
6,CCSc1nnc(NC(=O)CSc2nnc(-c3c[nH]c4ccccc34)n2C)s1,7.98%
7,COc1ccc(N(C(C)C(=O)N/N=C/c2ccc(OC)c(OC)c2)S(C)(=O)=O)cc1 (stereo not shown),5.24%
8,CCC(C)NC(=O)C1CCCN(S(=O)(=O)c2ccc(-n3cnnn3)cc2)C1 (stereo not shown),-6.39%
9,OCCN1CCN(c2ncnc3sc4c(c23)CCCC4)CC1,-12.2%
10,Cc1ccccc1OCC(=O)Nc1cc(S(=O)(=O)N2CCOCC2)ccc1N1CCCC1,-28%
11,Nc1ccc(S(=O)(=O)Nc2nccc(/C=C/c3ccc([N+](=O)[O-])cc3)n2)cc1,9.52%
12,O=C(/C=C/c1ccc2c(c1)OCO2)NCCSCc1c(Cl)cccc1Cl,0.181%
13,CSc1nnc(C)c(=O)n1COC(=O)c1ccc([N+](=O)[O-])cc1,-30.8%
14,COc1cc(C)nc(Oc2ccc(/C=N/O)cc2)n1,13.9%
15,CCOCc1nnc(NC(=O)c2ccc3c(c2)OCO3)s1,-10.9%
16,COc1cc(C(=O)N/N=C/C2CC=CCC2)cc(OC)c1OC (stereo not shown),-7.28%
17,CCOC(=O)c1cccc(N/C=C/C(=O)c2ccc(OC)c(OC)c2)c1,14.4%
18,CCOC(=O)N1CCN(C(=O)c2ccc(N(Cc3ccccc3)S(C)(=O)=O)cc2)CC1,-10.2%
19,CCOC(=O)C1CCCN(C(=O)c2cc3nc(-c4ccc5c(c4)OCO5)cc(C(F)(F)F)n3n2)C1 (stereo not shown),-0.76%
20,CC(=O)N(Nc1ccccc1)c1ccccc1,16.4%
21,O=C(Nc1cccnc1)c1ccc(F)cc1,12.4%
22,CCOC(=O)C1CCCN(S(=O)(=O)c2ccc(S(=O)(=O)N3CCCC3)cc2)C1 (stereo not shown),1.58%

row,SMILES,"hERG current change (%, negative = inhibition) at 10uM"
1,COc1ccc(CNC(=O)c2cc3c(s2)CN(Cc2ccccc2)C3)cc1.Cl,-44.2%
2,CSCCC(NC(N)=O)C(=O)Nc1cccc(S(=O)(=O)N2CCOCC2)c1 (stereo not shown),19.2%
3,CC1CCC(NC(=O)CN2C(=O)COc3ccc(S(=O)(=O)N4CCCC4)cc32)CC1 (stereo not shown),-7.33%
4,Cc1cc(C)nc(-n2ncc3c2CC(c2cccc(Cl)c2)CC3=O)n1 (stereo not shown),0.128%
5,CC1CN(C(=O)c2cccc(COc3ccc(Br)cc3)c2)CC(C)O1 (stereo not shown),-37.6%
6,Cc1nc(C)c(CC(=O)N2CCc3c([nH]c4ccccc34)C2c2ccccn2)s1 (stereo not shown),-7.41%
7,Cc1cc(C2CC(=O)Nc3ccccc3S2)c(C)s1 (stereo not shown),-8.4%
8,Cc1cc(C(=O)NCC(c2ccco2)N(C)C)no1 (stereo not shown),8.04%
9,CCN(CC)S(=O)(=O)c1ccc(C)c(NC(=O)CN2CCN(C)CC2)c1.O=C(O)C(=O)O,-12.4%
10,CCOC(=O)C1(CCCc2ccccc2)CCN(C(=O)c2cncs2)CC1,-55%
11,CCc1ccc(NC(=S)N(CCN2CCCCC2)Cc2ccco2)cc1,-75.4%
12,CCCC(c1nnnn1Cc1ccc(OC)cc1)N1CCN(c2ccccc2OC)CC1 (stereo not shown),-8.59%
13,O=C1C(Nc2cccc(O)c2)=C(N2CCCCC2)C(=O)c2ccccc21,-3.89%
14,Cc1cc(/C=C2\C(=O)NC(=O)N(c3cccc(Br)c3)C2=O)c(C)n1C,0.841%
15,N#CC(C(=O)c1ccccc1Cl)=C1SCCCS1,-30%
16,O=C(c1ccco1)N1CCN(C(=O)c2cc(=O)[nH]c3ccccc23)CC1,12.6%
17,O=C(CSc1ccccn1)Nc1ccccc1F,-15.5%
18,CCOc1ncccc1C(=O)N1CCN(C(c2ccccc2)c2ccccc2)CC1,5.75%
19,COc1ccc(CC(C)CC(=O)NCCc2ccc(OC)c(OC)c2)cc1 (stereo not shown),18.9%
20,Cc1cc(N2CCN(c3ccccc3Cl)CC2)n2cc(-c3ccccc3)nc2n1,-53.9%
21,COC(=O)c1ccc(C2N=C(c3cccs3)CC(c3ccccc3O)N2)cc1 (stereo not shown),13%
22,Cc1cc(C)cc(N(CCC(=O)Nc2nnc(C3CC3)s2)S(=O)(=O)c2ccc(Cl)cc2)c1,4.63%

row,SMILES,"hERG current change (%, negative = inhibition) at 10uM"
1,COC(=O)c1ccc(SCc2ccccc2)nc1,15.2%
2,CCOC(=O)C(C)N1C(=O)S/C(=C/c2cc(C)n(-c3ccccn3)c2C)C1=O (stereo not shown),-0.671%
3,COc1ccc2ccc(=O)oc2c1,-2.62%
4,COc1ccc(C(=O)N/C(=C\c2ccccc2)C(=O)N2CCOCC2)cc1,-8.27%
5,Cc1cc(C)nc(NC(C)(C)C(=O)O)n1,14.6%
6,Cc1cc2nnc(SCC(=O)N(C)C3CCS(=O)(=O)C3)n2c2ccccc12 (stereo not shown),-8.99%
7,Cc1cccc(-c2nc(=S)c3c(n2Cc2ccco2)CCCC3)c1,7.14%
8,COCCn1nnnc1C(CC(C)C)N1CCN(c2nc3ccccc3s2)CC1 (stereo not shown),-9.4%
9,O=[N+]([O-])c1ccc(N2CCN(S(=O)(=O)c3ccccc3)CC2)c2cccnc12,-76.8%
10,O=C(O)Cn1c2ccccc2c2n[nH]c(=S)nc21,16.7%
11,C=CCN(c1ccccc1OC)S(=O)(=O)c1cccc(C(=O)OCC(=O)c2c[nH]c3ccccc23)c1,9.96%
12,O=C(Nc1cc(-c2ccccc2)nn1-c1ccccc1F)c1ccc([N+](=O)[O-])cc1,-4.53%
13,COC(CNC(=O)c1cccnc1)OC,7.73%
14,O=C1C2C3c4ccccc4C(Br)(c4ccccc43)C2C(=O)N1c1ccccc1O (stereo not shown),16.7%
15,COC(=O)/C=C1/SC(=Nc2ccc(C)cc2C)NC1=O,9.81%
16,COc1cccc(N(CC(=O)NC(C)(C)C)C(=O)C2CSC(=O)C2)c1 (stereo not shown),3.09%
17,O=C(NC1CCSc2ccccc21)c1ccccc1Br (stereo not shown),-19%
18,Cc1ccc(C)c(NC(=O)c2cccc(Oc3ccc([N+](=O)[O-])cc3Cl)c2)c1,-4.21%
19,COc1ccccc1N1CCN(CC(O)COc2ccc3c(c2)CCC3)CC1.Cl (stereo not shown),-74.2%
20,CCOC(=O)CC1=C(C(=O)OCC)C(c2ccc(C)o2)C(C#N)=C(N)O1 (stereo not shown),-13.1%
21,CCN1C(=O)[C@H]2[C@@H](c3ccc(Cl)cc3)N3C(=O)CN(CCOC)C(=O)[C@@]3(C)[C@H]2C1=O,3.18%
22,O=[N+]([O-])c1ccc(N2CCCC2)cc1NCc1ccccc1,15.4%

row,SMILES,"hERG current change (%, negative = inhibition) at 10uM"
1,NC(=O)NC(=O)c1nccnc1C(=O)O,16.9%
2,CNS(=O)(=O)c1cccc(C(=O)OCC(=O)N2CCCC2)c1,12.6%
3,O=C(CCn1cnnn1)Nc1ccccc1,26.1%
4,CCOc1ccc(Cc2c(O)[nH]c(=O)[nH]c2=O)cc1,17%
5,Nn1c(SCc2cc([N+](=O)[O-])cc3c2OCOC3)nnc1-c1cccnc1,12.4%
6,Cn1c(SCC(=O)NC2CCCC2)nc2cccnc21,21.5%
7,CN(C)S(=O)(=O)n1cc(/C=C(\NC(=O)c2ccccc2)C(=O)NCCN2CCOCC2)c2ccccc21,-15%
8,O=S(=O)(c1ccc(Nc2ccc3c(c2)OCO3)nc1)N1CCOCC1,-13.2%
9,CC1Cc2ccccc2N1C(=O)CN(C)CC(=O)Nc1cccc(F)c1 (stereo not shown),-32.7%
10,COc1ccc(-c2ccc(SC)nn2)cc1,13%
11,Nc1ccccc1O,12.5%
12,NC(=O)[C@@H]1CCCNc2c(I)cc([N+](=O)[O-])cc2C(=O)N[C@@H](CO)C(=O)NCC(=O)N1,-29.2%
13,CCOC(=O)C1(Cc2ccccc2C)CCCN(C(=O)c2cc(C3CC3)[nH]n2)C1 (stereo not shown),-7.24%
14,S=c1[nH]nc(-c2ccco2)n1/N=C/c1ccc(Br)s1,7.16%
15,COc1ccc(N(CC(=O)NC2CC3CCC2C3)S(=O)(=O)c2ccccc2)cc1OC (stereo not shown),-5.6%
16,CCN(CC(=O)Nc1ccc(OC)cc1)CC(=O)N1CC(=O)Nc2ccccc21,-5.65%
17,Cc1ccc(C(=O)NCCCCNC(=O)c2ccc(C)o2)o1,-7.22%
18,CCN(CC(=O)Nc1c(F)cccc1F)C(=O)c1ccc(C(F)(F)F)cc1,10%
19,Nc1nnc(Sc2ncccc2[N+](=O)[O-])s1,21.4%
20,Nc1nc2ncc(C(=O)c3cc(Cl)cc(Cl)c3O)cc2s1,1.9%
21,COc1ccc(Cc2nnc(NC(=O)CSc3ccc(C)cc3)s2)cc1,20.1%
22,CC1(C)Cc2cccc(OCC(=O)Nc3cc(C(F)(F)F)ccc3N3CCOCC3)c2O1,1.13%

# Reference: publication PMC4336329 (PLoS ONE, 2015)
